Structures are written as SMILES. Screen size: about 310,000 compounds; about 14,000 (4.5%) showed an effect of 50% or more. Effects have a minus sign here. This is one part of the list.
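Also: peak tail current of the secondary pulse compared with the same well before compound.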

This assay deals with human ether-à-go-go-related gene (hERG) potassium channel (human, UniProt Q12809). Briefly: primary screen, population patch clamp on CHO cells stably expressing hERG.
Sequence of human ether-à-go-go-related gene (hERG) potassium channel (Q12809 whole entry, looked up): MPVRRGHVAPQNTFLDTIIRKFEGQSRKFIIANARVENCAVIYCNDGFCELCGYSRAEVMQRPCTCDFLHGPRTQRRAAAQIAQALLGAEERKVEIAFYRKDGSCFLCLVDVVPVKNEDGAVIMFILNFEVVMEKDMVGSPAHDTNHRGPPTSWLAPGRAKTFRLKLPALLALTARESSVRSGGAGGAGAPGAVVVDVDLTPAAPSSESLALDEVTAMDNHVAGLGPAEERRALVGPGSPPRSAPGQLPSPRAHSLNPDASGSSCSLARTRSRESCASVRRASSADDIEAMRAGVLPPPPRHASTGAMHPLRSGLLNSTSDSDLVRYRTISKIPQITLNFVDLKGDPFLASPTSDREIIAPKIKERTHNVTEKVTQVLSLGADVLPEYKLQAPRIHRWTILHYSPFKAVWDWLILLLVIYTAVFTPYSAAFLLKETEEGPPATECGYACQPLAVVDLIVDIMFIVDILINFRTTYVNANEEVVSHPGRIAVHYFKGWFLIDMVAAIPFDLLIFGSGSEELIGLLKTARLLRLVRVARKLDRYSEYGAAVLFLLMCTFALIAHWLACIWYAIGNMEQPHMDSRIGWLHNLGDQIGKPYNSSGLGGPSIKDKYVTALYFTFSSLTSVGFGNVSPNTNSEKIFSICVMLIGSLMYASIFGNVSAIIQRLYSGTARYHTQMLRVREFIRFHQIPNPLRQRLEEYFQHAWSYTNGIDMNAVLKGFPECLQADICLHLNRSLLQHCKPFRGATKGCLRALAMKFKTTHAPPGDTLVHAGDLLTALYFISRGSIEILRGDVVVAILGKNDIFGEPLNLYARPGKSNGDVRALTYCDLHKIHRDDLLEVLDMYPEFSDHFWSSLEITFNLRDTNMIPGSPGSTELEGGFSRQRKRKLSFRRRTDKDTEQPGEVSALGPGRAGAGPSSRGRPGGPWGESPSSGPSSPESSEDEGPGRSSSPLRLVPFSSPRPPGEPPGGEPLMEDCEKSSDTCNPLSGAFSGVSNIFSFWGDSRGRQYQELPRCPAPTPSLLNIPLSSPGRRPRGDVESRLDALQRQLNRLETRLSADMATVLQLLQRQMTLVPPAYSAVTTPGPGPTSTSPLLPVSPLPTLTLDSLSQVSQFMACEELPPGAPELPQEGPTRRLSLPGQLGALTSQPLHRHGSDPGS
In the case of `COc1ccc(S(=O)(=O)N2CCC(CN3C(=O)c4cccc5cccc(c45)C3=O)CC2)cc1`, the “hERG current change (%, negative = inhibition) at 10uM” value came out at 7.22%.
The same measure for `COc1ccc(NS(=O)(=O)c2ccc3c(c2)CCO3)cc1`: 3.31%; for `O=C(COC(=O)c1ccc(O)cc1O)Nc1ccc2ccccc2c1`: 8.28%.
Then `CC1(c2ccc3ccccc3c2)NC(=O)N(CC(=O)NCc2cccs2)C1=O` (stereo not drawn), with -0.455%.
Regarding `CC(=O)c1cccc(-c2ccc3c(=O)[nH]c(Nc4ccccc4)cc3c2)c1`, the “hERG current change (%, negative = inhibition) at 10uM” value is listed as 0.596%.
Then `CC(=O)C1=C(NC(=O)c2ccc(F)cc2)CC2C1C2(C)C` (stereo not drawn), with 1.95%.
The same measure for `CC1CC(C)CN(c2ccc([N+](=O)[O-])cc2-c2nn[nH]n2)C1` (stereo not drawn): -0.617%; for `Cc1ccc2c(c1)C1CN(C)CCC1N2C(=O)c1cccnc1Cl.Cl` (stereo not drawn): 1.59%.
The same measure for `CCCOc1ccc2ccccc2c1/C=N/n1cnnc1`: -14.7%; for `CCN(CC)CCOC(=O)c1ccc(NC(=O)C(C)NC(=O)C23CC4CC(CC(C4)C2)C3)cc1` (stereo not drawn): -4.41%.
On to `S=c1[nH]ncc2ccccc12`, for which the “hERG current change (%, negative = inhibition) at 10uM” value turned out to be 11%.
The same measure for `COc1ccc(CNC(=O)C(=O)NCC2OCCN2S(=O)(=O)c2cccs2)cc1` (stereo not drawn): -4.34%.
Then `CCCn1c(N2CCN(C(=O)/C=C/C(=O)O)CC2)nc2ccccc21`, with 9.76%; and `Cc1ccc2nc(N3CCN(Cc4nnnn4Cc4ccccc4)CC3)c(C#N)cc2c1`, with 3.53%.
Turning to `Cc1ccc(-c2nc(C#N)c(NCc3ccco3)o2)cc1`, the “hERG current change (%, negative = inhibition) at 10uM” value is given as -0.709%.
Then `Cc1ccccc1-n1ncc(C(C)NC(=O)c2ccccc2)c1C` (stereo not drawn), with -4.33%; and `O=C(CCC(=O)N1CCOc2ccccc21)N1CCOCC1`, with -5.85%; and `CS(=O)(=O)NCCSCc1c(F)cccc1Cl`, with 1.87%.
Then `CC(=O)Nc1ccc(/C=C/C(=O)c2ccc3c(c2)OCCO3)cc1`, with -0.901%; and `COc1ccc(S(=O)(=O)N2CCCCCC2)cc1C(=O)OCc1cccc(OC)c1OC`, with 8.63%.
The same measure for `COc1cc(OC)cc(C(=O)NC2CCN(Cc3nnnn3Cc3ccc(F)cc3)CC2)c1`: -3.98%; for `CCCn1c(C(C)Nc2nc(C)cs2)nc2cc(Cl)c(Cl)cc21` (stereo not drawn): -9.28%; for `CC(C)(C)NC(=O)CCSc1nnc(-c2ccco2)o1`: -2.3%.
`CCCN1CCC(N(CCc2ccccc2)Cc2ccccc2)CC1`: the “hERG current change (%, negative = inhibition) at 10uM” value was -72.2%.
As to `CCOC(=O)c1[nH]c(C(=O)O)c(CCN(CC)CC)c1C`, the “hERG current change (%, negative = inhibition) at 10uM” value is given as 11.2%.
The same measure for `Cc1c(C(=O)N2CCOCC2)c(S(=O)(=O)Nc2cccc(Br)c2)c(C)n1C`: 11.2%.
Then `COc1ccc(Br)cc1/C=C/C(=O)NC(=S)Nc1ccc(CN2CCOCC2)cc1`, with 23.2%; and `Cc1cc(NC(=O)CSc2nc3cc(Cl)ccc3o2)no1`, with 17.7%.
The same measure for `O=c1[nH]c(N2CCOCC2)nc2ccccc12`: 16.3%; for `CC(C)=CCCC(C)NC(=O)NC1CCCCC1` (stereo not drawn): -3.64%.
Turning to `CCOC(=O)c1cccc(S(=O)(=O)N2CCOCC2)c1`, the “hERG current change (%, negative = inhibition) at 10uM” value stood at 3.88%.
The same measure for `O=S(=O)(Nc1ccccc1O)c1cccc2cccnc12`: 8.14%.
The same measure for `CCOc1ccc(S(=O)(=O)NN=C2CCN(C(C)=O)CC2)cc1`: 10.7%; for `C/C(N)=C(/C#N)C(=O)CSc1nc(-c2ccccc2)c(-c2ccccc2)o1`: 12.9%; for `CCOC(=O)c1[nH]c2c(c1C)C(=O)CC(c1ccc(OC)c(OC)c1)C2` (stereo not drawn): -9.84%.
Then `COc1ccc(SCCN2CC[C@@H](NC(=O)OCc3ccccc3)CCC2=O)cc1`, with -54.4%.
For `Cc1nc2ccccc2[nH]c1=O`, the “hERG current change (%, negative = inhibition) at 10uM” value worked out at 14.5%.
As to `O=C(Cc1ccccc1)c1nc2ccccc2s1`, the “hERG current change (%, negative = inhibition) at 10uM” value is reported as 17%.
Then `O=C1NCCn2ccc(=O)cc21`, with 1.37%; and `CSc1ncc(C(=O)Nc2ccccc2)cn1`, with 10.8%; and `C=C(C)C(=O)Nc1ccc2c(c1)OCCOCCOCCO2`, with -26.4%.
Regarding `O=C(/C=C/c1ccccc1)NCc1ccc2c(c1)OCO2`, the “hERG current change (%, negative = inhibition) at 10uM” value is on record as 2.84%.
Then `Cc1cc(C(=O)CSc2nnc(-c3ccccc3)o2)c(C)n1CC1COc2ccccc2O1` (stereo not drawn), with 4.5%; and `CC(Oc1cccc2cccnc12)C(=O)N/N=C/c1ccc2c(c1)OCO2` (stereo not drawn), with 8.29%.
Then `O=c1[nH]c(=O)n(Cc2ccco2)c(O)c1C=NCCN1CCNCC1`, with 13.1%; and `CC(C)c1ccc(NC(=O)Cn2cccc2C2=NC(c3ccccc3)CO2)cc1` (stereo not drawn), with -3.56%.
`O=C(NC1CCCC1)c1cc2nc(-c3ccco3)cc(C(F)(F)F)n2n1`: the “hERG current change (%, negative = inhibition) at 10uM” value is given as 20.1%.
Then `COc1ccc(C(=O)N2CCN(C3CCC(c4ccccc4)CC3)CC2)cc1OC` (stereo not drawn), with -69.9%.
Then `CCOc1ccc(C(c2c(NC(=O)c3ccco3)sc(C)c2C)N2CCOCC2)cc1` (stereo not drawn), with -6.78%.
`CC(C)Cn1c(N)c(C(=O)COC(=O)[C@@H]2CCCN2C(=O)c2cccs2)c(=O)n(C)c1=O`: the “hERG current change (%, negative = inhibition) at 10uM” value is recorded as -8.74%.
For the compound `COc1ccc(C(=O)Nc2ccccc2C(=O)NC(Cc2c[nH]c3ccccc23)C(=O)O)cc1` (stereo not drawn), the “hERG current change (%, negative = inhibition) at 10uM” value amounted to 11.2%.
As to `COc1ccc(-c2cnc(N)nc2-c2ccc(OC)cc2O)cc1`, the “hERG current change (%, negative = inhibition) at 10uM” value was determined as 23.2%.
The same measure for `COc1ccccc1CN(C)C(=O)c1sccc1-c1ccccc1`: -11.5%; for `CC(C)CC(=O)NNC(=O)c1ccc(Cl)cc1`: 22.6%; for `COC(=O)C1(C)NC(c2ccccc2F)C2C(=O)N(c3ccccc3)C(=O)C21` (stereo not drawn): 13.4%.
Then `CCC(=O)/C=C1/Sc2ccccc2N1CC`, with 7.66%; and `CN(C1CCS(=O)(=O)C1)S(=O)C12CC3CC(CC(C3)C1)C2` (stereo not drawn), with 17.2%.
Then `COc1ccc(-n2c(Cc3cccn3C)nnc2SCC(=O)Nc2ccc(C)c(Cl)c2)cc1`, with -28.2%.
`O=C(CNS(=O)(=O)c1c(Cl)cccc1Cl)OCc1csc(-c2ccccc2)n1`: the “hERG current change (%, negative = inhibition) at 10uM” value amounted to 1.09%.
Then `CCc1ccc(Nc2cc(C(=O)NCCCN3CCOCC3)c3ccccc3n2)cc1`, with -35.5%.
Then `COCCNC(=O)/C(C#N)=C1\N=C(NC(=O)c2cccs2)c2ccccc21`, with 6.86%.
Then `NC(=O)C1(N2CCCCC2)CCN(C(=O)NC2CCCCC2)CC1`, with -6.34%.
For `CCn1c(Cc2c(C)[nH]c3ccccc23)nnc1SCC(=O)NCc1ccccc1`, the “hERG current change (%, negative = inhibition) at 10uM” value was -11.7%.
Regarding `CC(=O)Nc1cccc(-c2csc(Nc3ccc(C)cn3)n2)c1`, the “hERG current change (%, negative = inhibition) at 10uM” value is listed as 0.972%.
Then `Cc1ccc(S(=O)(=O)NCCSC(C)(C)C)cc1`, with -3.99%.
Then `O=Nc1c(O)n(Cc2ccc(Cl)cc2)c2ccccc12`, with -0.245%.
Consider `O=C(O)c1ccc(Sc2ccccn2)c([N+](=O)[O-])c1`, for which the “hERG current change (%, negative = inhibition) at 10uM” value was determined as 6.44%.
The same measure for `COc1ccc(N2CCN(C(=O)COC(=O)c3cccc(S(=O)(=O)Nc4cccc(C)c4)c3)CC2)cc1`: -16.1%; for `Cc1cc(C)nc(CCNC(=O)c2cc(COc3ccc(F)cc3F)on2)n1`: -25.8%; for `COc1cc(CC(CC(=O)O)CC(C)OCc2ccccc2)cc(OC)c1` (stereo not drawn): 9.95%.
The same measure for `O=C(O)C1CN(c2ncccc2[N+](=O)[O-])C1`: 20.2%; for `N/C(=N\OC(=O)c1ccc(F)cc1)c1cccc([N+](=O)[O-])c1`: 9.84%.
Then `CCN(CC(=O)Nc1ccc(OC)cc1)C(=O)c1cc2c(s1)CCCCC2`, with 16.3%; and `N#Cc1ccc(CSc2nnc(-c3ccncc3)n2CCc2ccccc2)cc1`, with -74.1%.
Regarding `COc1ccc(C2CC(C(F)(F)F)n3nc(C(=O)NCc4cn(C)nc4C)c(Cl)c3N2)cc1` (stereo not drawn), the “hERG current change (%, negative = inhibition) at 10uM” value was 11.5%.
For the compound `OC(CCCN1CCC(O)(c2ccc(Cl)cc2)CC1)c1ccc(F)cc1` (stereo not drawn), the “hERG current change (%, negative = inhibition) at 10uM” value is recorded as -75.7%.
The same measure for `CCOc1cc(C2C(C#N)=C(N)OC(C)=C2C(C)=O)cc(Br)c1O` (stereo not drawn): 9.7%; for `N#CC1=C(N)Oc2c(O)cc3ccccc3c2C1c1ccsc1` (stereo not drawn): -0.483%; for `O=C(NCCCN1CCCCCC1)C1CC(=O)N(C2CCCC2)C1` (stereo not drawn): 5.99%.
The same measure for `Cc1ccc(NC(=S)c2ccncc2)c(C)c1`: 3.39%; for `O=C(N/N=C/c1ccncc1)c1ccc(OCc2ccccc2)cc1`: -0.12%.
As to `CCOC(=O)c1c(NC(=O)COC(=O)c2ccc(C)s2)sc2c1CC(C)(C)NC2(C)C`, the “hERG current change (%, negative = inhibition) at 10uM” value is -20.5%.
The same measure for `Cc1ccc(SCC(=O)NN=C2CCN(C)CC2)cc1`: 17.4%; for `COc1ccc(C2(c3ccc(OC)cc3)NC(=O)N(CC(=O)Nc3ccc(C(N)=O)cc3)C2=O)cc1`: 16.7%.
The same measure for `Cc1[nH]c(SCC(=O)Nc2cc(S(C)(=O)=O)ccc2Cl)nc1Cc1ccccc1`: -20.6%.
For `C=CCNCCOCCOc1ccc(C)cc1[N+](=O)[O-]`, the “hERG current change (%, negative = inhibition) at 10uM” value is -19.2%.
Regarding `COc1cccc(CN(C)CC(O)COc2cc(Cl)ccc2Cl)c1.O=C(O)C(=O)O` (stereo not drawn), the “hERG current change (%, negative = inhibition) at 10uM” value was -42%.
The same measure for `O=C(Cc1cccc(C(F)(F)F)c1)NCc1cccnc1`: 7.17%; for `N/C(=N\OCC(=O)Nc1ccccc1)c1nonc1N`: 11.4%.
As for `Cc1ccc(F)cc1NC(=O)N1CCCN(c2ccc(C(F)(F)F)cn2)CC1`, the “hERG current change (%, negative = inhibition) at 10uM” value is -43.3%.

(Values after PMC4336329 (PLoS ONE, 2015).)
